Read counts are not given, so values of variants with three or more changes are uncertain.
B1: LINE1-full (parent)
chain: UACGUAGGUGGUUUUCCCCUGAUAGUGCUAAGGGGGCCUGGAAGUUUGGACUGGGCAGAGCUCAACACAGCGUGGCAAAGUGGCUGUGGCUAGACUGCCUCUCUGGAUUCCUCGUCACUCAGCAGGGCAUCUCUGAGAGAAAUGCC

Variants of: B1
Assay: self-cleavage, relative activity (ratio to wild type); higher = more cleavage; in vitro, sequencing; the parent is a self-cleaving ribozyme
C16A A129U A142G gave a self-cleavage of 1.12.
With U15A U26C A141G the self-cleavage was 0.92.
In the case of U45C A67U A92U U96C C145G, the self-cleavage is reported as 0.
Work on G48A U109C A140G yielded a self-cleavage of 0.33.
U87A U104C C113U U134G gave a self-cleavage of 0.13.
With A24G U52A A138G the self-cleavage was 1.15.
With U14C U87C A142G the self-cleavage was 0.3.
With U23A U104C A136G the self-cleavage was 0.
Work on G32A A43G A57G G75A A121G yielded a self-cleavage of 0.53.
With A59G A79C A129G the self-cleavage was 0.
In the case of A43G U47A U100A, the self-cleavage is reported as 1.1.
U13C A43G A50U A57G gave a self-cleavage of 0.
G97A U115C A136G A142U showed a self-cleavage of 0.45.
U26C G125A A138G A140G gave a self-cleavage of 1.87.
A59G A77G U81C U134A showed a self-cleavage of 0.
For A77G G89A U134G A142G, the self-cleavage was 0.04.
For U62C U91C A141G, the self-cleavage was 0.
Variant A6G G53A A59G A69U U96A A121G has a self-cleavage of 0.05.
Variant U45C A78G U85C G105A has a self-cleavage of 0.45.
U12G U14C U39A U45C A50G showed a self-cleavage of 1.84.
In the case of A77G C116A A142G, the self-cleavage is reported as 1.17.
For A24G A31U A42G G58U U62A G93U, the self-cleavage was 0.05.
With U14C A31G U130C the self-cleavage was 1.29.
In the case of A59U U85A G127A A136G, the self-cleavage is reported as 0.06.
With U85C U96C G97C A121G the self-cleavage was 0.
With A30G U39A U47C G53A U134A the self-cleavage was 1.17.
Variant U62C U73A A78G U104C has a self-cleavage of 0.09.
In the case of U1C U12C U102A U108A A138G, the self-cleavage is reported as 1.84.
U14C U45A A67U U132C showed a self-cleavage of 0.24.
A64G A78G U87C showed a self-cleavage of 0.
Work on C63U U115A A138U yielded a self-cleavage of 0.32.
U13C G34A U52G U62C U112A gave a self-cleavage of 0.1.
For A31U C37A C68U U73C G88A A142G C146A, the self-cleavage was 0.03.
U62C A142G U143C showed a self-cleavage of 0.
For A64G U96A C111U, the self-cleavage was 0.03.
Variant A57U U73C G80A U112C has a self-cleavage of 0.02.
U47C U81A U96A U102A gave a self-cleavage of 0.25.
Variant U15A U115A C145U has a self-cleavage of 1.01.
In the case of C19U A42G A59G A107G, the self-cleavage is reported as 0.
For A22G A30G G58A U134G A136G, the self-cleavage was 0.41.
U26C U29C A67U A136G gave a self-cleavage of 0.38.
In the case of G8A A43G G48U, the self-cleavage is reported as 1.21.
For U62C A117U U119C U143A, the self-cleavage was 0.06.
Variant A42U C56U A124G C131U has a self-cleavage of 0.1.
For G32U U87C U115C U130A, the self-cleavage was 0.15.
Variant A30G A77G A142G has a self-cleavage of 2.15.
U13A U26C G54A showed a self-cleavage of 0.37.
G34U A79G U104A A124U gave a self-cleavage of 1.67.
Work on U73C U104C U112A U132A yielded a self-cleavage of 1.53.
U5C A77G A121G U143A gave a self-cleavage of 1.84.
U85C A121U A140G gave a self-cleavage of 0.
Variant U13C A59G A78U has a self-cleavage of 0.04.
Work on C19U U100A A142G yielded a self-cleavage of 0.55.
Variant U14C A69U A78G has a self-cleavage of 0.
With U14A U96A G105A the self-cleavage was 0.04.
A42U G126U U130C gave a self-cleavage of 0.66.
For U9C A24G U85C A121U, the self-cleavage was 0.
In the case of A42U U62C U85A, the self-cleavage is reported as 0.09.
C17A U52A A107G gave a self-cleavage of 1.08.
Variant U5C U39C G93A U96C U132A has a self-cleavage of 0.11.
For A67G U85G U109A, the self-cleavage was 0.15.
Variant U20C A78G U87C G114A U132C A141G has a self-cleavage of 0.
U13C U119C A138G gave a self-cleavage of 2.
U91A U134C A140G gave a self-cleavage of 0.78.
Work on A43G A94U U132C yielded a self-cleavage of 0.21.
Work on A24G U52C U119C yielded a self-cleavage of 2.68.
U29C A57U A140G showed a self-cleavage of 0.11.
Variant A64U A67G G86A A142G has a self-cleavage of 0.17.
Work on A2C A22G U52C A141G yielded a self-cleavage of 2.76.
U5C A22G U81A U119C gave a self-cleavage of 2.63.
Variant A22G U45C A50U G127A A138C A141G has a self-cleavage of 1.84.
In the case of U46C A65G A77G, the self-cleavage is reported as 0.09.
For A67U U81C U119A U143A, the self-cleavage was 0.19.
Work on U39C G41A A121G A141G yielded a self-cleavage of 1.4.
Work on C71U U85A U100A U104C yielded a self-cleavage of 0.02.
A31G A42U A140G showed a self-cleavage of 1.2.
With U20A A50U U134C the self-cleavage was 1.26.
Work on G60A A65G A124G yielded a self-cleavage of 0.
In the case of U1C C19U A138G, the self-cleavage is reported as 0.
In the case of G53A U100C U102C, the self-cleavage is reported as 1.25.
Variant U5C U87A U104A U132C has a self-cleavage of 0.09.
For U13C A57C A138G, the self-cleavage was 0.
U23A A65G A140G A141G gave a self-cleavage of 0.08.
U39C G49U A65U U81A C90A showed a self-cleavage of 0.03.
U9C U62C A77G A142G gave a self-cleavage of 0.24.
U13C A65G C103U gave a self-cleavage of 0.1.
G40A U45C G106U gave a self-cleavage of 0.69.
Variant U62A U96C A140G has a self-cleavage of 0.07.
Variant U9C A57G C71U has a self-cleavage of 0.19.
For C71U A79G A142C, the self-cleavage was 0.87.
Work on U20A U85A U96A C110G A136U A142G yielded a self-cleavage of 0.1.
G10U U47C A78G U100A gave a self-cleavage of 0.23.
In the case of U23C C71U A138G, the self-cleavage is reported as 1.
Variant A59U A79G U115C has a self-cleavage of 0.
Variant A57G A69U U85A A140U has a self-cleavage of 0.22.
U5C C18A U96A showed a self-cleavage of 0.17.
For U29A G49A A141G, the self-cleavage was 0.
In the case of U20A A42G U87C C99U A141G, the self-cleavage is reported as 0.29.
For U23C U29C A67U U91C C111A A142G, the self-cleavage was 0.
U46C U85A U104A gave a self-cleavage of 0.02.
In the case of U5A G48A U52A A94G, the self-cleavage is reported as 0.49.
With U100C U112C U115C the self-cleavage was 2.16.
In the case of A22G U87C A117U A121G, the self-cleavage is reported as 0.
Work on C28G A77G U102C A121U yielded a self-cleavage of 1.15.
Variant G10A A59U A67C U130C has a self-cleavage of 0.26.
With A42U U104C U143A the self-cleavage was 1.83.
A67G A78G C90U gave a self-cleavage of 0.04.
With G36C U39A C99A U104C the self-cleavage was 0.17.
In the case of U13A U14C A59G U85G, the self-cleavage is reported as 0.
Work on A59G C84U A107G A121U yielded a self-cleavage of 0.05.
In the case of A64U U102C A117G, the self-cleavage is reported as 0.39.
Variant U12G U96C U104A A141C has a self-cleavage of 0.
A50C C99G U100C gave a self-cleavage of 1.05.
A42G A43G A124U A142G gave a self-cleavage of 0.43.
Variant U15G G72A U73C has a self-cleavage of 0.62.
Work on U9C U15A A43U A141G yielded a self-cleavage of 1.07.
G74A A79C G125C U143C showed a self-cleavage of 1.58.
Work on G125A U134C C146A yielded a self-cleavage of 0.94.
Variant U13C U47C A57G U73A has a self-cleavage of 0.71.
Work on U13C U15C G32A A138G yielded a self-cleavage of 2.33.
For U13C A59G C131A, the self-cleavage was 0.
U52A A67G U81C gave a self-cleavage of 0.1.
In the case of U109C A136G U143C, the self-cleavage is reported as 0.97.
A22G A94U C99U gave a self-cleavage of 0.08.
With U23C A77C U143C the self-cleavage was 0.84.
U15C U26A A42G showed a self-cleavage of 0.99.
U12C A69U U108C showed a self-cleavage of 0.14.
Work on U52C U85G U134C yielded a self-cleavage of 0.
U14C A22U A77G showed a self-cleavage of 1.27.
Work on A59U A77U G106U U143A yielded a self-cleavage of 0.49.
Variant U39C U85C U115C A140U has a self-cleavage of 0.
Variant U15C A42U A141G has a self-cleavage of 1.4.
U14G A22U A43G A57U C120U showed a self-cleavage of 0.1.
U47A U119C G122A showed a self-cleavage of 1.73.
In the case of A59U C84A A141U, the self-cleavage is reported as 0.11.
Work on U12A U87C U109A yielded a self-cleavage of 0.34.
U12C G86U U100C U109C gave a self-cleavage of 0.15.
With G11A U14C U112A A129G A136U C146G the self-cleavage was 1.49.
U26G G33U U39C C63U A77G U96C showed a self-cleavage of 0.1.
Variant U12C U62C A141G has a self-cleavage of 0.
With U52C A69U A78G A92U U132C the self-cleavage was 0.
U73C A79G U104A gave a self-cleavage of 0.74.
Work on U1A U5C A77G A92G yielded a self-cleavage of 1.53.
With A6U U87C C95U U132C the self-cleavage was 0.15.
U13A G35A U108A C118U showed a self-cleavage of 0.6.
Variant U14C U87C G139U has a self-cleavage of 0.11.
A69G G89A G93A gave a self-cleavage of 0.02.
In the case of G49A A64U C84U U87A, the self-cleavage is reported as 0.04.
For A67C C110U C113U A124C, the self-cleavage was 0.05.
Variant C3U U112C U119C U134A has a self-cleavage of 0.5.
Variant A59G A65G A140G has a self-cleavage of 0.08.
Variant U26A U100C U134C has a self-cleavage of 0.94.
U45C U46C U132C showed a self-cleavage of 1.31.
Work on U13A U46A U108C A129G yielded a self-cleavage of 1.02.
For U45A A129G A142G, the self-cleavage was 1.67.
G89A G97A U115C showed a self-cleavage of 0.03.
With U14C U47A A136C A141U the self-cleavage was 1.07.
For U14C A59G A107U, the self-cleavage was 0.29.
Work on U15A A117G U119C yielded a self-cleavage of 1.53.
G11C G83U A136C gave a self-cleavage of 0.86.
Variant A43G U46A A65G C99U has a self-cleavage of 0.02.
Variant A22G U29C A69C U115C has a self-cleavage of 0.54.
In the case of G32A A59G A141G, the self-cleavage is reported as 0.
For U96C A107G U143C, the self-cleavage was 0.1.
U1A U14C U109C A136U A141G gave a self-cleavage of 0.49.
Work on U14A U26C U115C A138U yielded a self-cleavage of 0.88.
U12C G106U U108A A129G showed a self-cleavage of 1.74.
